# Assay results taken from the supplement of paper PMC8728848.
# This is one part of the list.
# B1: CC1G-11630 (Coprinopsis cinerea), A8P462 (protein)
# chain: MTTEAKIKLKAVVYWELVFDYDNSSNTGEITQSYTVKISQTSTRSTFASEVSTTTIDTLTKNNQEVDVGASYGAISANVSASWEHSEEVNNMLEKTTQTSTEDTYTVETEETRSYTIGPGGMLSLFQKHFSGPGMHVAFDVFTTDLELAKERTEIDIDVDVEAIRFVREIRVVYTDIMSEAPGDHVREINGKNPDINYGFNGKFVWLVPEQTRKTAQALTNVEFVSQAESDDRYWDLAAGAGGSNRYLIPVYDTNNKDKIYELALWRSDSYITHDKVKAAGWSGTTGDINSGRGGTYLNLVWKTRHAY
# Assays:
# Test in all cases: glycan array binding signal (z-score within array); higher = stronger binding
# Conditions in all cases: glycan notation: IUPAC condensed, linker removed
# Gal(a1-6)Glc = target: Gal(a1-6)Glc
# How it was run: (§1)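 Negative Z-scores can be read as non-binding. The Z-score is calculated within each array and then averaged across arrays of one protein sequence at different concentrations or buffers and across linkers. Arrays, 3228 in all, were curated from the Consortium for Functional Glycomics database and kept only where the protein sequence was available.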
# Gal(b1-2)Gal = target: Gal(b1-2)Gal
# How it was run: as §1
# Gal(b1-3)Gal = target: Gal(b1-3)Gal
# How it was run: as §1
# Gal(b1-3)Gal(b1-4)GlcNAc = target: Gal(b1-3)Gal(b1-4)GlcNAc
# How it was run: as §1
# Gal(b1-3)GalNAc = target: Gal(b1-3)GalNAc
# How it was run: as §1
# [1] = target: Gal(b1-3)GalNAc(a1-3)[Fuc(a1-2)]Gal(b1-4)Glc
# How it was run: as §1
# [2] = target: Gal(b1-3)GalNAc(a1-3)[Fuc(a1-2)]Gal(b1-4)GlcNAc
# How it was run: as §1
# Gal(b1-3)GalNAc(b1-3)Gal = target: Gal(b1-3)GalNAc(b1-3)Gal
# How it was run: as §1
# [3] = target: Gal(b1-3)GalNAc(b1-3)Gal(a1-4)Gal(b1-4)Glc
# How it was run: as §1
# [4] = target: Gal(b1-3)GalNAc(b1-4)Gal(b1-4)Glc
# How it was run: as §1
# [5] = target: Gal(b1-3)GalNAc(b1-4)[Neu5Ac(a2-3)]Gal(b1-4)Glc
# How it was run: as §1
# Gal(b1-3)GlcNAc = target: Gal(b1-3)GlcNAc
# How it was run: as §1
# [6] = target: Gal(b1-3)GlcNAc(a1-3)Gal(b1-4)GlcNAc
# How it was run: as §1
# [7] = target: Gal(b1-3)GlcNAc(a1-6)Gal(b1-4)GlcNAc
# How it was run: as §1
# Gal(b1-3)GlcNAc(b1-2)Man = target: Gal(b1-3)GlcNAc(b1-2)Man
# How it was run: as §1
# [8] = target: Gal(b1-3)GlcNAc(b1-2)Man(a1-3)[Gal(b1-3)GlcNAc(b1-2)Man(a1-6)]Man(b1-4)GlcNAc(b1-4)GlcNAc
# How it was run: as §1
# [9] = target: Gal(b1-3)GlcNAc(b1-2)Man(a1-3)[Gal(b1-3)GlcNAc(b1-2)Man(a1-6)]Man(b1-4)GlcNAc(b1-4)[Fuc(a1-6)]GlcNAc
# How it was run: as §1
# [10] = target: Gal(b1-3)GlcNAc(b1-2)Man(a1-3)[GlcNAc(b1-4)][Gal(b1-3)GlcNAc(b1-2)Man(a1-6)]Man(b1-4)GlcNAc(b1-4)GlcNAc
# How it was run: as §1
# [11] = target: Gal(b1-3)GlcNAc(b1-2)[Gal(b1-3)GlcNAc(b1-6)]Man(a1-6)[Gal(b1-3)GlcNAc(b1-2)Man(a1-3)]Man(b1-4)GlcNAc(b1-4)GlcNAc
# How it was run: as §1
# [12] = target: Gal(b1-3)GlcNAc(b1-3)Gal(b1-3)GlcNAc
# How it was run: as §1
# [13] = target: Gal(b1-3)GlcNAc(b1-3)Gal(b1-4)Glc
# How it was run: as §1
# [14] = target: Gal(b1-3)GlcNAc(b1-3)Gal(b1-4)GlcNAc
# How it was run: as §1
# [15] = target: Gal(b1-3)GlcNAc(b1-3)Gal(b1-4)GlcNAc(b1-2)Man(a1-3)[Gal(b1-3)GlcNAc(b1-3)Gal(b1-4)GlcNAc(b1-2)Man(a1-6)]Man(b1-4)GlcNAc(b1-4)GlcNAc
# How it was run: as §1
# [16] = target: Gal(b1-3)GlcNAc(b1-3)Gal(b1-4)GlcNAc(b1-2)[Gal(b1-3)GlcNAc(b1-3)Gal(b1-4)GlcNAc(b1-6)]Man(a1-6)[Gal(b1-3)GlcNAc(b1-3)Gal(b1-4)GlcNAc(b1-2)Man(a1-3)]Man(b1-4)GlcNAc(b1-4)[Fuc(a1-6)]GlcNAc
# How it was run: as §1
# [17] = target: Gal(b1-3)GlcNAc(b1-3)Gal(b1-4)GlcNAc(b1-3)Gal(b1-4)GlcNAc(b1-2)[Gal(b1-3)GlcNAc(b1-3)Gal(b1-4)GlcNAc(b1-3)Gal(b1-4)GlcNAc(b1-6)]Man(a1-6)[Gal(b1-3)GlcNAc(b1-3)Gal(b1-4)GlcNAc(b1-3)Gal(b1-4)GlcNAc(b1-2)Man(a1-3)]Man(b1-4)GlcNAc(b1-4)[Fuc(a1-6)]GlcNAc
# How it was run: as §1
# [18] = target: Gal(b1-3)GlcNAc(b1-3)Gal(b1-4)GlcNAc(b1-6)[Gal(b1-3)GlcNAc(b1-3)]Gal(b1-4)Glc
# How it was run: as §1
# [19] = target: Gal(b1-3)GlcNAc(b1-3)Gal(b1-4)[Fuc(a1-3)]GlcNAc
# How it was run: as §1
# [20] = target: Gal(b1-3)GlcNAc(b1-3)Gal(b1-4)[Fuc(a1-3)]GlcNAc(b1-6)[Gal(b1-3)GlcNAc(b1-3)]Gal(b1-4)Glc
# How it was run: as §1
# [21] = target: Gal(b1-3)GlcNAc(b1-3)GalNAc
# How it was run: as §1
# [22] = target: Gal(b1-3)GlcNAc(b1-6)Gal(b1-4)GlcNAc
# How it was run: as §1
# [23] = target: Gal(b1-3)GlcNAc(b1-6)GalNAc
# How it was run: as §1
# [24] = target: Gal(b1-3)GlcNAc(b1-6)[Gal(b1-3)]GalNAc
# How it was run: as §1
# Gal(b1-3)GlcNAc6S = target: Gal(b1-3)GlcNAc6S
# How it was run: as §1
# [25] = target: Gal(b1-3)[Fuc(a1-4)]GlcNAc
# How it was run: as §1
# [26] = target: Gal(b1-3)[Fuc(a1-4)]GlcNAc(b1-2)Man
# How it was run: as §1
# [27] = target: Gal(b1-3)[Fuc(a1-4)]GlcNAc(b1-2)Man(a1-3)[Gal(b1-3)[Fuc(a1-4)]GlcNAc(b1-2)Man(a1-6)]Man(b1-4)GlcNAc(b1-4)[Fuc(a1-6)]GlcNAc
# How it was run: as §1
# [28] = target: Gal(b1-3)[Fuc(a1-4)]GlcNAc(b1-3)Gal(b1-3)[Fuc(a1-4)]GlcNAc
# How it was run: as §1
binder,measurement,setting,value
B1,glycan array binding signal (z-score),Gal(a1-6)Glc,0.156
same,glycan array binding signal (z-score),Gal(b1-2)Gal,0.137
same,glycan array binding signal (z-score),Gal(b1-3)Gal,-0.364
same,glycan array binding signal (z-score),Gal(b1-3)Gal(b1-4)GlcNAc,-0.38
same,glycan array binding signal (z-score),Gal(b1-3)GalNAc,-0.111
same,glycan array binding signal (z-score),[1],-0.477
same,glycan array binding signal (z-score),[2],-0.414
same,glycan array binding signal (z-score),Gal(b1-3)GalNAc(b1-3)Gal,-0.936
same,glycan array binding signal (z-score),[3],-0.375
same,glycan array binding signal (z-score),[4],-0.195
same,glycan array binding signal (z-score),[5],-0.229
same,glycan array binding signal (z-score),Gal(b1-3)GlcNAc,-0.809
same,glycan array binding signal (z-score),[6],-0.437
same,glycan array binding signal (z-score),[7],-0.556
same,glycan array binding signal (z-score),Gal(b1-3)GlcNAc(b1-2)Man,-0.642
same,glycan array binding signal (z-score),[8],-0.037
same,glycan array binding signal (z-score),[9],-0.474
same,glycan array binding signal (z-score),[10],-0.314
same,glycan array binding signal (z-score),[11],0.113
same,glycan array binding signal (z-score),[12],0.152
same,glycan array binding signal (z-score),[13],-0.389
same,glycan array binding signal (z-score),[14],-0.431
same,glycan array binding signal (z-score),[15],-0.063
same,glycan array binding signal (z-score),[16],0.851
same,glycan array binding signal (z-score),[17],0.55
same,glycan array binding signal (z-score),[18],-0.632
same,glycan array binding signal (z-score),[19],-0.67
same,glycan array binding signal (z-score),[20],-0.619
same,glycan array binding signal (z-score),[21],-0.302
same,glycan array binding signal (z-score),[22],-0.07
same,glycan array binding signal (z-score),[23],-0.69
same,glycan array binding signal (z-score),[24],-0.034
same,glycan array binding signal (z-score),Gal(b1-3)GlcNAc6S,0.27
same,glycan array binding signal (z-score),[25],-0.297
same,glycan array binding signal (z-score),[26],2.23
same,glycan array binding signal (z-score),[27],0.558
same,glycan array binding signal (z-score),[28],-0.037
